Over roughly 4,100 sequences, “relative CpG methylation activity (normalised to average over all NNNCGNNN flanks)” has its median near 0.94; the highest 2% begin near 1.9. The list shows a part of the results.
The sequences below were run against DNMT3B catalytic domain (mouse) (UniProt O88509) (assay: relative CpG methylation activity (normalised to average over all NNNCGNNN flanks) (relative (1 = mean)); higher = more methylation of the central CpG). Conditions: system: in vitro, murine catalytic domain; CpG state: hemimethylated substrate pool; residues: 558-859.
Procedure: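 Deep enzymology: a pool of dsDNA substrates with a central CpG flanked by 10 random nucleotides on each side was methylated by the murine DNMT3A or DNMT3B catalytic domain (0.8 mM SAM, 37 °C, 60 min). Methylation was then read out by hairpin ligation, bisulfite conversion and NGS. Values are the average methylation of each NNNCGNNN context (±3 flanks; the outer flanks are random and averaged over), normalised to the overall mean, so 1 = average activity.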

Sequence of UniProt O88509 (O88509 558-859): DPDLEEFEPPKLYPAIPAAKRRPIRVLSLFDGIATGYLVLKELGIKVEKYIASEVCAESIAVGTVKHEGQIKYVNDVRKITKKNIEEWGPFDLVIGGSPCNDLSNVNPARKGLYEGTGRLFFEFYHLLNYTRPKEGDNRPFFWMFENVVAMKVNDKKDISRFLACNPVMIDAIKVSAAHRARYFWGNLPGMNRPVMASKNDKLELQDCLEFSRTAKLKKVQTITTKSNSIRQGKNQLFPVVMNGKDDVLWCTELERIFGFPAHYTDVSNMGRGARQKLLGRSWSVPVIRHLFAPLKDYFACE

Point of comparison: GAACGTAT, “relative CpG methylation activity” value 1.09. Against it:
- TTTCGGAT — higher, 1.39
- ACCCGTTG — lower, 0.371
- AGACGTTG — lower, 0.617
- CCCCGTAG — lower, 0.53
- GTCCGGGA — higher, 1.64
- TTCCGTCG — lower, 0.936
- TAGCGATC — higher, 1.55
- CCGCGTAT — lower, 0.578
- TATCGAGT — higher, 1.51
- TCACGACA — higher, 1.34
- TTACGAAA — higher, 1.78
- TAACGATG — higher, 1.44
- CGACGACC — higher, 1.23
- GCCCGGCC — higher, 1.59
- AGCCGGAA — lower, 0.359
- TGTCGTCA — lower, 0.543
- ATCCGAGT — higher, 1.37
- TTTCGGTT — higher, 1.29
- GGGCGTCG — lower, 0.228
- GGACGTAT — lower, 0.646
- CGACGTGA — lower, 0.451
- CATCGCGA — lower, 0.481
- CTGCGTTT — lower, 0.744
- GATCGGGA — lower, 0.916
- TTTCGCGA — lower, 0.706
- GACCGAAA — higher, 1.11
- CCGCGGGA — lower, 0.89
- ACACGGCC — higher, 1.94
- GTTCGCGG — lower, 0.734
- AGGCGGTG — lower, 0.468
- CATCGACG — lower, 0.973
- GCTCGATA — higher, 1.54
- CGACGTCC — lower, 0.901
- GCTCGAGA — higher, 1.63
- GTCCGGGT — higher, 1.27
- TAACGAAT — higher, 1.32
- CACCGTAA — lower, 0.266
- AGTCGTTC — lower, 0.708
- ATCCGTAG — lower, 0.285
- CCTCGACA — higher, 1.32
- CAACGCGT — higher, 1.26
- GTGCGACG — lower, 0.848
- ACTCGAAT — lower, 0.855
- CCCCGTCA — lower, 0.836
- GATCGTCT — lower, 0.745
- CCGCGGAA — lower, 0.562
- CACCGTGC — lower, 0.514
- CTACGAAA — higher, 1.69
- ACCCGTAC — higher, 1.2
- AGGCGGGC — lower, 0.758
- ACACGCAA — lower, 0.869
- AGACGTAT — lower, 0.58
- AGGCGCCG — lower, 0.309
- TTGCGTGC — lower, 0.603
- ATACGACT — higher, 1.87
- CGGCGGAA — lower, 0.609
- ATCCGTGC — lower, 0.83
- CCACGTTA — lower, 0.705
- CCACGAGA — higher, 1.56
- TTCCGATT — higher, 1.75
- CCGCGGGT — lower, 0.929
- AAACGGCT — higher, 1.82
- TCCCGGGC — higher, 1.72
- AGTCGATC — higher, 1.7
- TTCCGAGA — higher, 1.6
- TCGCGAGG — higher, 1.47
- CGCCGCAG — lower, 0.103
- TCCCGACA — higher, 1.42
- CAACGGAC — higher, 1.54
- CTTCGTGC — lower, 0.878
- CACCGTGG — lower, 0.295
- ATGCGAGA — higher, 1.16
- GGGCGCCT — lower, 0.495
- CGGCGGGC — lower, 0.776
- GCGCGGTC — lower, 0.932
- GCACGCAA — lower, 0.713
- CTGCGTCC — higher, 1.35
- CTACGCTT — higher, 1.78
- CCTCGTGG — lower, 0.141
- ATACGCAA — lower, 1.05
- GGCCGCGG — lower, 0.104
- GAACGAGC — higher, 1.85
- GCACGCTC — higher, 1.46
- TGTCGGAG — lower, 0.568
- GCGCGTAA — lower, 0.589
- GTCCGGAG — lower, 0.909
- GGGCGTAG — lower, 0.303
- TCACGGAG — lower, 0.76
- TCGCGCCA — lower, 0.761
- CCACGTAT — lower, 0.996
- TTACGACA — higher, 1.81
- CGTCGGCG — higher, 1.57
- TGGCGTTT — lower, 0.26
- GTGCGGCG — higher, 1.28
- TGGCGCGT — lower, 0.532
- ACCCGAGT — higher, 1.27
- CCGCGTTG — lower, 0.398
- ACTCGGGC — higher, 1.34
- AACCGGCA — higher, 1.16
- GAGCGTTT — lower, 0.407
- GGGCGCAT — lower, 0.278
- GCACGACG — higher, 1.18
- GGGCGGGA — lower, 0.521
- TCCCGTGG — lower, 0.0283
- GGCCGGCT — higher, 1.11
- TCCCGTCC — higher, 1.26
- CCGCGCCC — lower, 0.962
- ATACGTGA — lower, 0.906
- CCTCGGTA — lower, 1.03
- TGCCGAAT — lower, 0.836
- CAGCGAGT — higher, 1.12
- ATCCGTTT — lower, 0.735
- CGGCGCGG — lower, 0.289
- TGACGGTG — lower, 1.01
- CGCCGTCA — lower, 0.269
- GAGCGCGA — lower, 0.336
- CATCGCCA — lower, 0.973
- GTGCGGAC — lower, 0.92
- CGCCGTGC — lower, 0.492
- GAACGGGT — higher, 1.54
- TCGCGTGA — lower, 0.494
- GCTCGCGA — lower, 0.311
- GTTCGTGG — lower, 0.265
- ACACGCAC — lower, 1.06
- TAACGTCC — higher, 1.38
- ATCCGCCC — lower, 1.08
- AGACGTAC — higher, 1.17
- ATGCGGAG — lower, 0.568
- GACCGGGT — lower, 1.03
- GACCGGTC — lower, 0.988
- ACACGGAC — higher, 1.29
- TTTCGCAT — lower, 0.584
- GGCCGGTC — lower, 0.895
- AACCGTAC — lower, 0.73
- CCCCGTTC — higher, 1.19
- CACCGAAC — higher, 1.33
- TGGCGTTG — lower, 0.449
- TGGCGTAA — lower, 0.24
- AGGCGTGA — lower, 0.289
- AACCGATC — higher, 1.4
- CTCCGGCC — higher, 1.94
- TAACGGCT — higher, 1.88
- CTACGTAC — higher, 1.62
- CGGCGCAT — lower, 0.389
- AAGCGTCC — lower, 0.891
- ACGCGTCC — lower, 1.01
- CTTCGCCA — higher, 1.57
- AGGCGCAT — lower, 0.199
- TCGCGTAT — lower, 0.515
- GTACGCAA — lower, 0.97
- ATTCGTCT — lower, 0.718
- GTACGGGG — higher, 1.6
- GTGCGGCT — higher, 1.34
- TCTCGATT — higher, 1.38
- TATCGGTC — higher, 1.34
- CCTCGAAC — higher, 1.35
- AAGCGGAA — lower, 0.312
- CCTCGTGA — lower, 0.546
- AACCGAAC — higher, 1.13
- CCCCGCGC — lower, 1.05
- GCCCGGGA — higher, 1.37
- CACCGTTT — lower, 0.307
- AACCGACA — lower, 0.856
- ACACGGGA — higher, 1.44
- AGCCGTGA — lower, 0.101
- CAACGAAA — higher, 1.52
- GGTCGATG — higher, 1.1
- TAGCGTTC — lower, 0.626
- TTTCGCGC — higher, 1.18
- AGGCGGCT — lower, 0.919
- CAACGTAC — higher, 1.36
- CTGCGGAA — lower, 0.922
- GTTCGTCC — lower, 0.787
- GTACGGCT — higher, 1.56
- GATCGGCC — higher, 1.52
- TCACGCAG — lower, 0.781
- ATGCGTGC — lower, 0.609
- TGACGTTT — lower, 0.658
- GAGCGTGA — lower, 0.365
- TCACGACG — higher, 1.28
- ACTCGGTT — higher, 1.23
- TACCGCGT — lower, 0.29
- ACTCGGGA — higher, 1.25
- GGTCGTAG — lower, 0.202
- TAGCGATA — higher, 1.43
- AGGCGAAA — lower, 0.81
- CGGCGACT — lower, 0.758
- AAGCGAAC — lower, 1.05
- ATTCGTGT — lower, 0.216
- ATACGACC — higher, 1.86
- GGGCGAAC — lower, 0.804
- CACCGGAC — lower, 0.86
- TACCGGGC — higher, 1.17
- TCGCGTTT — lower, 0.521
- GAACGTAA — lower, 0.809
- GTTCGAAG — lower, 0.967
- CATCGTTA — lower, 0.653
- TAACGAAG — higher, 1.24
- GCGCGAAT — lower, 0.74
- GCACGGAG — lower, 0.69
- AGACGTCG — lower, 0.872
- TTCCGGTC — higher, 2.04
- TGTCGGTC — higher, 1.29
- TCACGTCT — higher, 1.13
- CCTCGAAT — higher, 1.3
- GCACGGCC — higher, 1.77
- CCCCGCAT — lower, 0.57
- ACGCGATG — lower, 0.919
- TCGCGTCT — lower, 0.77
- AGGCGGTT — lower, 0.694
- TTACGGGG — higher, 2
- GCTCGACC — higher, 1.25
- GTCCGCCC — lower, 1.03
- GGGCGGGT — lower, 0.481
- ACCCGACC — higher, 1.38
- GATCGACC — higher, 1.11
- CCGCGTCT — lower, 0.792
- GACCGAGT — higher, 1.31

— the supplement of paper PMC7335073
